Each compound was assayed on Colletotrichum orbiculare. Conditions: 250 ppm, sprayed 2.5 ml/pot before inoculation; evaluated 6-10 days after inoculation.

Compound	Test H (control value class, anthracnose on cucumber)
COc1cc(F)c(-c2c(-c3cccc(F)c3F)ccc(=O)n2C)c(F)c1 [Compound 561]	H (H shows more than 50% of control values)
COc1cc(F)c(-c2c(-c3cccc(F)c3F)cc(Cl)c(=O)n2C)c(F)c1 [Compound 562]	H (H shows more than 50% of control values)
COc1cc(F)c(-c2c(-c3cccc(F)c3F)cc(C)c(=O)n2C)c(F)c1 [Compound 565]	H (H shows more than 50% of control values)
CCn1c(-c2c(F)cc(F)cc2F)c(-c2cccc(F)c2F)cc(Cl)c1=O [Compound 566]	H (H shows more than 50% of control values)
CCn1c(-c2c(F)cc(F)cc2F)c(-c2cccc(F)c2F)cc(Br)c1=O [Compound 567]	H (H shows more than 50% of control values)
CCn1c(-c2c(F)cc(F)cc2F)c(-c2ccccc2F)cc(F)c1=O [Compound 568]	H (H shows more than 50% of control values)
CCn1c(-c2c(F)cc(OC)cc2F)c(-c2ccccc2F)cc(C)c1=O [Compound 569]	H (H shows more than 50% of control values)
COc1cc(F)c(-c2c(-c3ccccc3F)cc(Cl)c(=O)n2C)c(F)c1 [Compound 570]	H (H shows more than 50% of control values)
Cc1cc(-c2ccccc2F)c(-c2c(F)cc(F)cc2F)n(C)c1=O [Compound 571]	H (H shows more than 50% of control values)
CCN1C(=O)CCC(c2ccc(F)cc2Cl)=C1c1c(F)cc(F)cc1F [Compound 573]	H (H shows more than 50% of control values)
CN1C(=O)CCC(c2ccc(F)cc2Cl)=C1c1c(F)cc(F)cc1F [Compound 574]	H (H shows more than 50% of control values)
CCn1c(-c2c(F)cc(F)cc2F)c(-c2ccc(F)cc2Cl)ccc1=O [Compound 575]	H (H shows more than 50% of control values)
Cn1c(-c2c(F)cc(F)cc2F)c(-c2ccc(F)cc2Cl)ccc1=O [Compound 576]	H (H shows more than 50% of control values)
CCn1c(-c2c(F)cc(F)cc2F)c(-c2ccc(F)cc2Cl)cc(Cl)c1=O [Compound 577]	H (H shows more than 50% of control values)
CCn1c(-c2c(F)cc(F)cc2F)c(-c2ccc(F)cc2Cl)cc(Br)c1=O [Compound 578]	H (H shows more than 50% of control values)
CCOc1cc(F)c(-c2c(-c3cc(F)cc(F)c3F)ccc(=O)n2CC)c(F)c1 [Compound 579]	H (H shows more than 50% of control values)
CCOc1cc(F)c(-c2c(-c3cc(F)cc(F)c3F)cc(Cl)c(=O)n2CC)c(F)c1 [Compound 580]	H (H shows more than 50% of control values)
CCN1C(=S)CCC(c2cc(OC)ccc2Cl)=C1c1c(F)cccc1F [Compound 581]	H (H shows more than 50% of control values)
CCn1c(-c2c(F)cccc2F)c(-c2cc(OC)ccc2Cl)ccc1=O [Compound 582]	H (H shows more than 50% of control values)

Compound	Test H (control value class, anthracnose on cucumber)
CCN1C(=O)CCC(c2cc(F)cc(F)c2Cl)=C1c1c(F)cc(F)cc1F [Compound 583]	H (H shows more than 50% of control values)
CCn1c(-c2c(F)cc(F)cc2F)c(-c2cc(F)cc(F)c2Cl)ccc1=O [Compound 584]	H (H shows more than 50% of control values)
CCn1c(-c2c(F)cc(F)cc2F)c(-c2cc(F)cc(F)c2Cl)cc(Cl)c1=O [Compound 585]	H (H shows more than 50% of control values)
Cn1c(-c2c(F)cc(F)cc2F)c(-c2cc(F)cc(F)c2Cl)cc(Cl)c1=O [Compound 587]	H (H shows more than 50% of control values)
CCn1c(-c2c(F)cc(OC)cc2F)c(-c2cccc(F)c2F)ccc1=O [Compound 588]	H (H shows more than 50% of control values)
CCn1c(-c2c(F)cc(OC)cc2F)c(-c2cccc(F)c2F)cc(Br)c1=O [Compound 589]	H (H shows more than 50% of control values)
CCn1c(-c2c(F)cc(OC)cc2F)c(-c2cccc(F)c2F)cc(Cl)c1=O [Compound 590]	H (H shows more than 50% of control values)
CCOc1cc(F)c(-c2c(-c3ccccc3F)ccc(=O)n2C)c(F)c1 [Compound 591]	H (H shows more than 50% of control values)
CCn1c(-c2c(F)cc(OC)cc2F)c(-c2ccc(F)cc2Cl)cc(Cl)c1=O [Compound 593]	H (H shows more than 50% of control values)
CCn1c(-c2c(F)cc(F)cc2F)c(-c2ccc(F)cc2Cl)cc(C)c1=O [Compound 594]	H (H shows more than 50% of control values)
CCOc1cc(F)c(-c2c(-c3ccc(F)cc3Cl)cc(Cl)c(=O)n2CC)c(F)c1 [Compound 595]	H (H shows more than 50% of control values)
Cn1c(-c2c(F)cc(F)cc2F)c(-c2ccc(F)cc2Cl)cc(Cl)c1=O [Compound 596]	H (H shows more than 50% of control values)
Cn1c(-c2c(F)cc(F)cc2F)c(-c2ccc(F)cc2Cl)cc(Br)c1=O [Compound 597]	H (H shows more than 50% of control values)
CCOc1cc(F)c(-c2c(-c3ccccc3F)cc(Cl)c(=O)n2C)c(F)c1 [Compound 598]	H (H shows more than 50% of control values)
CCn1c(-c2c(F)cc(OC)cc2F)c(-c2ccc(F)cc2Cl)cc(C)c1=O [Compound 599]	H (H shows more than 50% of control values)
COc1cc(F)c(-c2c(-c3ccc(F)cc3Cl)cc(Cl)c(=O)n2C)c(F)c1 [Compound 600]	H (H shows more than 50% of control values)
CCn1c(-c2c(F)cc(Cl)cc2F)c(-c2cc(F)ccc2Cl)ccc1=O [Compound 601]	H (H shows more than 50% of control values)
CCn1c(-c2c(F)cc(Cl)cc2F)c(-c2cc(F)ccc2Cl)cc(Cl)c1=O [Compound 602]	H (H shows more than 50% of control values)
Cn1c(-c2c(F)cc(Cl)cc2F)c(-c2cc(F)ccc2Cl)ccc1=O [Compound 604]	H (H shows more than 50% of control values)

Same assay, conditions: in vivo

Compound	Test H (control value class)
CCn1c(-c2c(F)cc(F)cc2F)c(-c2cccc(F)c2F)ccc1=O [Compound 558]	H (key: H shows more than 50% of control values; L shows 50% or less of control values)
Cn1c(-c2c(F)cc(F)cc2F)c(-c2cccc(F)c2F)cc(Cl)c1=O [Compound 559]	H (key: H shows more than 50% of control values; L shows 50% or less of control values)
Cn1c(-c2c(F)cc(F)cc2F)c(-c2cccc(F)c2F)cc(Br)c1=O [Compound 560]	H (key: H shows more than 50% of control values; L shows 50% or less of control values)

From patent US10299477B2 (priority 2015, dated 2019)
